Publication PMC12136788
Some of the results follow.

T1: UNK ZnF1-3 (human, UniProt Q9C0B0 31-174)
T1 sequence: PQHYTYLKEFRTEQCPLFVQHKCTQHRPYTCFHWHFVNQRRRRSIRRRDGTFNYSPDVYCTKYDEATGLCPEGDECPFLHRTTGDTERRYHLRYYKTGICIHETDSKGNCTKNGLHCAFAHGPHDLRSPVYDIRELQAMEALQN

B1: chr11:77336104:77336105:-_ENSG00000074201_ENST00000525064|hu_mus|hu_hu_hu_mus_False|8_48 (ssRNA)
RNA: GGGAGUUCUACAGUCCGACGAUCCUCACACAUUGCUGUGAACAUCGCCUCCAAUGCUGACUUAUCACUGGGCACAAAUCGAAAUUCAGUAAUAGGUUCAACAUCAUCAUUGUCUUCCUCAUCUUCAUCAUCAGCAAGUUCUUUCAACAGAGGAUUGAGCAUCA
B2: chr11:64571133:64571134:-_ENSG00000133895_ENST00000312049|hu_hu|motif|central (ssRNA)
RNA: GGGAGUUCUACAGUCCGACGAUCCUGAAAAAUAAAUCUAUGUACAAAACAGGAAGAGAUCAGGCUCUUGUCACCCACUCCGGACCCUCUGCAGAUUUCCUCCGGGAUGCUCCGAGAUGGGCUGGACCUCUGGGAGGUUCCCAGCAACAGAGGAUUGAGCAUCA
B3: chr2:179515052:179515053:+_ENSMUSG00000000305_ENSMUST00000000314|mus_hu|mus_mus_mus_hu_False|18_88 (ssRNA)
RNA: GGGAGUUCUACAGUCCGACGAUCGCUGUCCCAUGCAGUCACCGUGAAGGCCACCUGCUCGGAGGGGACCUGCAGCUCCCGGGUGGCGAAGACUGUCCCAUCUGCCCCAACUUUGAAGUCCAAGCUGUUGGUCUCAUAUUGUGUCAACAGAGGAUUGAGCAUCA
B4: 64946643_64954203_516_3pUTR_ENSG00000113597_ENST00000231526|human|control|control (ssRNA)
RNA: GGGAGUUCUACAGUCCGACGAUCUUCAUCAGUCUCUGCAUUGUAAAAUUUGGUUUUCACAUCCAAUGGUUUGAGAACCUGAAAUUUGAAGAAUUUUCUGAAAUACAUUUUUUCUCCAGCCUGAGUUGUAUAACUCACAGCACACAACAGAGGAUUGAGCAUCA
B5: chr1:76259871:76259872:+_ENSG00000137955_ENST00000319942|hu_hu|motif|central (ssRNA)
RNA: GGGAGUUCUACAGUCCGACGAUCAUCCACCAUAUCUCCUGGCCUGUCUGCAAAUCCCCCCGUUUCUUCAUCUUGACAUGCGGAAAUGAAAUUACGCAGUUUCUCUCUAUCAAUCCAAUGAAGUCUUCCAAUUAUCUUUAGGGACAACAGAGGAUUGAGCAUCA
B6: 119781160_119781280_302_CDS_ENSMUSG00000034390_ENSMUST00000166750|mouse|control|control (ssRNA)
RNA: GGGAGUUCUACAGUCCGACGAUCGUCGGCCAGCGUUAGGUGGUGCGGCUCCCAGCGCCUCAGGAAUUUGGAGGUGAGGAUCUUGCUGAGAAAGGUCCGAGGGUGCCGGAUGACACAGACCUGAAUGUCGCCCUCCUGCAGCAGCAACAGAGGAUUGAGCAUCA
B7: chr11:22899103:22899104:+_ENSMUSG00000007739_ENSMUST00000173867|mus_hu|motif|central (ssRNA)
RNA: GGGAGUUCUACAGUCCGACGAUCUAAAAUAUAGGCUCUCUCUUCUCGCAGCACUCGGUCCAUCUGGGCAUAGUCAGAAACCACGGUUUGAUUAUCCAUGUCUGUUUUGGGAGCAGAUAAGCAAAACUGAAUAAGCCCAAUCUUCAACAGAGGAUUGAGCAUCA
B8: chr5:71490152:71490153:+_ENSG00000131711_ENST00000296755|hu_hu|FALSE|FALSE (ssRNA)
RNA: GGGAGUUCUACAGUCCGACGAUCUACAUUGAGAAAUACAACUCCUAAGUCAGGGGAGAUGAGGUUUUUCAUCCAGUCACUAUUUGUGGUGGAGCCCUGGGACUGUUCUUCCUCGAGCUCUGCAAUUUUCCGCUGUAACAUGCUCAACAGAGGAUUGAGCAUCA
B9: chrX:147244336:147244337:-_ENSMUSG00000025268_ENSMUST00000112699|mus_hu|FALSE|FALSE (ssRNA)
RNA: GGGAGUUCUACAGUCCGACGAUCGCUGAGAAGAAUGUACAAGUGGUCAUUCUUAUCAAUUUCCUUCAAUUGAAUCCCAAAUACCUUCUCCAAGGAAUAGCCUGCUCGUUCAAUGAUUUCGGGGUACACAUCAGUGUAUUCUUUCAACAGAGGAUUGAGCAUCA
B10: chr17:60770872:60770873:+_ENSG00000011028_ENST00000303375|hu_hu|hu_hu_hu_mus_True|78_108 (ssRNA)
RNA: GGGAGUUCUACAGUCCGACGAUCUCUCUUUUCUUUUAAAAAAAAAGACAAACAAUAAUAAUGGCACUCGAGAAUCAAGAACUACAAUAGAGGGUCCGCUUUGAGUUUUUGUUCACAUCGUCCUGCACUGGGACACGGGGACUGCAACAGAGGAUUGAGCAUCA
B11: chrX:76855959:76855960:-_ENSG00000085224_ENST00000373344|hu_hu|motif|central (ssRNA)
RNA: GGGAGUUCUACAGUCCGACGAUCUGAGGCUAUAAAUUCAUCCAUACUGUCUUCAUCAAAAUAACCCUUAUUUUCUUUGCGGAUGUAGUCUAGCUGCAAACACCAAGGAUGAGUCCAUAUUCUACUUAACAUCUGAAAAUCUUGCAACAGAGGAUUGAGCAUCA
B12: chr2:230653580:230653581:-_ENSG00000153827_ENST00000389045|hu_mus|motif|central (ssRNA)
RNA: GGGAGUUCUACAGUCCGACGAUCAGUGAGCCAUGUUGGGAUGUUUCCUGUCAUGAUUACUAGAGGGUCUUGAAGCUGCCGGUUUGCUUUUGCUGUUAAUUUACUGUUAAUAAAUUCACUAGUUGGAAUAAUCUCCUUGCACAUCAACAGAGGAUUGAGCAUCA
B13: chr5:135513207:135513208:+_ENSG00000113658_ENST00000545279|hu_mus|FALSE|FALSE (ssRNA)
RNA: GGGAGUUCUACAGUCCGACGAUCCCAUGUCAGCUCACAGCAUCUGUACUGGAAAUUCCUCUAAAAUUAAAACAAGUCCACUAAAAAUAUAGUUGAAAGAAUACUUCUGCACUAUGAAACAGAAGAAAUGGGGUUCAGCGGAGACAACAGAGGAUUGAGCAUCA
B14: chr4:151706827:151706828:+_ENSMUSG00000028936_ENSMUST00000139685|mus_mus|FALSE|FALSE (ssRNA)
RNA: GGGAGUUCUACAGUCCGACGAUCCACUGUGUCUCAAGCCCUCCUCGAGACAGGCACCAGAUAUAACCAACCACCAGCUCUAAGACUCGGGCUGGCCGGAGCCCACCACCCAGCCUCUCGUCUACUUGCUCUGUCAGAUGCAGCCAACAGAGGAUUGAGCAUCA
B15: chr12:56499883:56499884:+_ENSMUSG00000021024_ENSMUST00000021412|mus_mus|motif|central (ssRNA)
RNA: GGGAGUUCUACAGUCCGACGAUCGAUAGUAAUGUGACGGUCAAAACCGGCGCUGGAACCCCGGGACAUGGCGUUCCUGCGGUUUUAAACACAGUCUGCACCCCGUAGCACACACACCAGGGACCCAAGCCCCCUCCCGGAAGUCAACAGAGGAUUGAGCAUCA
B16: chr1:186330019:186330020:-_ENSG00000047410_ENST00000367478|hu_hu|FALSE|FALSE (ssRNA)
RNA: GGGAGUUCUACAGUCCGACGAUCCUCAAGCAUUUCUUUUUCCAUUUGAUCUUUGGAUUGCUCCACCUCUAGAAGAUGAUCUUGUAUUGCUUUGUUGGCUUCACCAGCUUCUUUCAAAAGUUUGUGUAGUUCCUCUACUGCCCGCAACAGAGGAUUGAGCAUCA
B17: chr11:44378942:44378943:+_ENSMUSG00000019189_ENSMUST00000019333|mus_mus|FALSE|FALSE (ssRNA)
RNA: GGGAGUUCUACAGUCCGACGAUCUUUAAAUUUAUUAAGACAUUCAGCUAUGUCUGUCAGUCUACAUCCAAAUUUGCUACUAAAAACAAAGGAAAACCACACCCCACAGUAGGAAUACCAAGUCUGAAAUACACUUUUUUUUGACAACAGAGGAUUGAGCAUCA
B18: 75764051_75764171_2063_3pUTR_ENSMUSG00000042410_ENSMUST00000047232|mouse|control|control (ssRNA)
RNA: GGGAGUUCUACAGUCCGACGAUCAUUCAAUUACUGGUAUAACCAUAGCUGAUGACUUUUAAAAGGUAACAUUUUUCAUAAUGAUAUUAAUGGAGUUAUAAAAGGUUUCUGUUUCCAAAGAUGUUACUUGGGUCCACAUACUCCCAACAGAGGAUUGAGCAUCA
B19: 11888238_11888358_1290_CDS_ENSMUSG00000049225_ENSMUST00000108301|mouse|control|control (ssRNA)
RNA: GGGAGUUCUACAGUCCGACGAUCCUUUUGAAGGUCAAUGCUCCAUUUGAACUUUACAUCUCCAAAAGCCCUAAAGGGCAUCAGCAAGCCAAGCAGCCGGUCCUGCUUUACCACGCUCUUGGCCUCAUUUUUUGGGUGUUCCAGCAACAGAGGAUUGAGCAUCA
B20: chr7:7679991:7679992:-_ENSG00000106399_ENST00000396682|hu_hu|hu_hu_hu_mus_False|28_78 (ssRNA)
RNA: GGGAGUUCUACAGUCCGACGAUCUGGGAUGAAUCUUUUCCAGCUUCCCCACGAAGCAGACAGGCUUGUCGAUAUACUGUGGUAACAUGCUGGCGUUGACGCGCGCUCUGGGCAAGUGCAUUAUGUCCUCCAUGAUUCUGCCGCCAACAGAGGAUUGAGCAUCA
B21: 126673131_126673816_2393_3pUTR_ENSMUSG00000074657_ENSMUST00000099172|mouse|control|control (ssRNA)
RNA: GGGAGUUCUACAGUCCGACGAUCUCUUCUCGUUCUCUUCAUUCUUCAGCCUCUCAUAGUCGGCCUGAAGCUUCUCCAGCUCUAACUGGAGCUUCUGGUUCAGGUCUUUCAGCUCAUCAAUGGUUUUCUGUUUCUCAUUAAUCUCAACAGAGGAUUGAGCAUCA
B22: chr9:66815617:66815618:-_ENSMUSG00000032370_ENSMUST00000034929|mus_hu|FALSE|FALSE (ssRNA)
RNA: GGGAGUUCUACAGUCCGACGAUCGUCAUGGAAUAUUUUCUGCAUAUAGUCCAAAUAUUUACAUCCUGAAGCUCUCUCUACUAUGGCUGCCAGUAGGGUAUAGCCAAAAGUUGAAUACAAAAACUGACUACCAGGUUUGAAGAACAACAGAGGAUUGAGCAUCA

Each binder was assayed against T1, UNK ZnF1-3 (assay: nsRBNS (natural sequence RNA bind-n-seq); RBNS binding buffer (assumed for nsRBNS): 25 mM Tris pH 7.5, 150 mM KCl, 3 mM MgCl2, 0.01% Triton X-100, 500 ug/ml BSA, 20 U/ml SUPERase-In, 4 C; UNK is unkempt and MSI1 is Musashi-1; names of the RNAs are library labels; protein concentration not given here; high values mean tight binding).

**Q.** B1 was tested. Which binding signal did it give?
**A.** 0.906 enrichment R

**Q.** For B2, which binding signal is on record?
**A.** 0.877 enrichment R

**Q.** B3 was tested. Which binding signal did it give?
**A.** 0.883 enrichment R

**Q.** B4 was tested. Which binding signal did it give?
**A.** 0.553 enrichment R

**Q.** For B5, which binding signal is on record?
**A.** 0.779 enrichment R

**Q.** How did the binding signal turn out when B6 was run?
**A.** 0.665 enrichment R

**Q.** B7 was tested. Which binding signal did it give?
**A.** 1.06 enrichment R

**Q.** Which binding signal does the source give for B8 here?
**A.** 0.718 enrichment R

**Q.** For B9, which binding signal is on record?
**A.** 0.564 enrichment R

**Q.** With B10 as the binder, how does the binding signal read?
**A.** 1.52 enrichment R

**Q.** Which binding signal does the source give for B11 here?
**A.** 1.05 enrichment R

**Q.** With B12 as the binder, how does the binding signal read?
**A.** 0.772 enrichment R

**Q.** For B13, which binding signal is on record?
**A.** 2.28 enrichment R

**Q.** Which binding signal does the source give for B14 here?
**A.** 1.22 enrichment R

**Q.** B15 was tested. Which binding signal did it give?
**A.** 0.579 enrichment R

**Q.** How did the binding signal turn out when B16 was run?
**A.** 0.27 enrichment R

**Q.** B17 was tested. Which binding signal did it give?
**A.** 1.14 enrichment R

**Q.** For B18, which binding signal is on record?
**A.** 1.25 enrichment R

**Q.** How did the binding signal turn out when B19 was run?
**A.** 0.803 enrichment R

**Q.** Which binding signal does the source give for B20 here?
**A.** 0.626 enrichment R

**Q.** Which binding signal does the source give for B21 here?
**A.** 0.341 enrichment R

**Q.** For B22, which binding signal is on record?
**A.** 1.2 enrichment R
